Hit rate of the full screen: of about 260,000 compounds, about 960 (0.37%) were called active. Inconclusive results, whose numbers are uncertain, are shown with a selection of clear calls.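 How the source made its calls: active means mean E-selectin-positive cell signal at least 10% of the positive control, reached in at least 60% of replicates, without over 20% cell loss; inconclusive means no rule given, readout overlaps actives, possibly toxicity-flagged; inactive means the rest, including those meeting only one limit.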
Biological target: E-selectin (Homo sapiens) (UniProt P16581)
Chain of UniProt P16581 (P16581 whole entry, looked up): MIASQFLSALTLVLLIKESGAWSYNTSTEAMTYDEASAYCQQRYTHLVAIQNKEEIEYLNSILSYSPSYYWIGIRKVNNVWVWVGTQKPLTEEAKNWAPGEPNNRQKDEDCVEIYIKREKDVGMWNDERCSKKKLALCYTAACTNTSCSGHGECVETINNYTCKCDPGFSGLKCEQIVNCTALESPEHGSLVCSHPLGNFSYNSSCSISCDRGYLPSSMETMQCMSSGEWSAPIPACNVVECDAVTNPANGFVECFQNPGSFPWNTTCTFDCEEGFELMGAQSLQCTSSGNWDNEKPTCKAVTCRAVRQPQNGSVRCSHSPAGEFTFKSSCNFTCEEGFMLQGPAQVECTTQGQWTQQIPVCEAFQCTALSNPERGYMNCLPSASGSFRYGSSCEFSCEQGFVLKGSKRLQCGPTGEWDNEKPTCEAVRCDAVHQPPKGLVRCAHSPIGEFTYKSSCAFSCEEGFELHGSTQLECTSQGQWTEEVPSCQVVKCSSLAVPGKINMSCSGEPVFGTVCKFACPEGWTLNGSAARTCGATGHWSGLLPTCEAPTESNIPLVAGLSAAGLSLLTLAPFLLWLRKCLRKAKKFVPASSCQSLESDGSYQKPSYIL
Experiment: inducers of endothelial E-selectin expression – imaging, HUVEC, immunofluorescence imaging, single point, primary screen (AID 686992);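 further: signal is the percent of cells scored E-selectin positive by PE staining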
Conditions: at 7.58 µM, active compounds read high, normalized: neutral wells 0, TNF-alpha wells 100
Outline: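 Material: HUVEC primary endothelial cells; Amount: 3,000 cells per well; Dosing: single concentration; Medium: EGM-2 growth medium on 0.1% gelatin-coated wells; Read-out basis: percent E-selectin-positive cells; Signal: immunofluorescence imaging; Control set: TNF-alpha, DMSO.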

SMILES | activation
C[C@@H]1CN([C@@H](C)CO)C(=O)Cc2cc(NC(=O)Nc3ccc(F)cc3)ccc2O[C@@H]1CN(C)S(=O)(=O)c1cn(C)cn1 | active: 72.5%
Cc1ccc(S(=O)(=O)N2C[C@H]3[C@H]4C(=O)N(C5CCCCC5)C(=O)[C@H]4CC(=O)[C@H]3[C@@H]2c2ccccc2F)cc1 | inconclusive: 35.4%
CC1CCc2[nH]c3ccc(C(=O)N(C)CC(=O)Nc4ccccc4Cl)cc3c2C1 (centres undefined) | inconclusive: 37%
CCCC(=O)Nc1c(C(=O)OCC)[nH]c2ccccc12 | inactive: 3.23%
CCN(CC)CCCNC(=O)CCn1nc(-c2ccc(Cl)cc2)ccc1=O | inconclusive: 49.1%
CC(C)C[C@@H]1COc2cc(N3CCC[C@H]3CO)ccc2S(=O)(=O)N1 | inconclusive: 115%
CCOC(=O)c1cc2c(=Cc3ccc(N(C)C)cc3)c3ccccc3n2[n+]1C | active: 139%
CCC(=O)N1CC[C@@H]2[C@H](CO)Nc3ccc(C#Cc4ccc(F)cc4)cc3[C@@H]21 | active: 59.5%
CCc1nc2ccc(C(=O)Nc3ccc(OC)c(OC)c3)cn2c1N(CCC(C)C)CCN(C)C | inconclusive: 59.5%
O=C(Oc1ccc(=O)[nH]n1)c1ccccc1 | inconclusive: 44.3%
C[C@@H]1CN([C@H](C)CO)C(=O)c2cc(NS(=O)(=O)c3ccccc3)ccc2O[C@@H](C)CCCCO[C@@H]1CN(C)S(=O)(=O)c1ccccc1 | inconclusive: 29%
CCc1nonc1NC(=O)c1oc2ccc(Cl)cc2c1C | inconclusive: 33.1%
C[C@@H]1CN([C@@H](C)CO)C(=O)c2cc(NS(=O)(=O)c3cccs3)ccc2O[C@@H]1CN(C)S(C)(=O)=O | active: 154%
COc1cccc(CNC(=O)c2cc3c(c(-c4cccc(-c5cccc(C#N)c5)c4)n2)[C@H](CCO)N(S(=O)C(C)(C)C)C3)c1 (some centres undefined) | active: 48.6%
CC12C=CC(=O)C=C1CCC1C2C(=O)CC2(C)C1CCC2(O)C(=O)CO (centres undefined) | inconclusive: 42.2%
COc1cccc(-c2ccc3c(c2)[C@@H]2[C@@H](CCN2C(=O)c2cccc(F)c2)[C@@H](CO)N3)c1 | inconclusive: 67.6%
CCOC(=O)C1=NNC(C(=O)c2ccc(Cl)cc2)C1c1ccc(OC)cc1 (centres undefined) | inconclusive: 72.1%
COc1ccc(NC(=O)N(C)C[C@H]2OCCCC[C@H](C)Oc3ccc(NC(=O)c4ccccc4)cc3C(=O)N([C@H](C)CO)C[C@@H]2C)cc1 | inactive: -0.152%
CN(C(=O)Cc1c(C(=O)O)n(C)c2ccccc12)c1cccc(C(F)(F)F)c1 | inconclusive: 38.2%
C[C@H]1CN([C@@H](C)CO)C(=O)c2cc(NS(C)(=O)=O)ccc2O[C@@H]1CN(C)Cc1ccc(Cl)c(Cl)c1 | inconclusive: 112%
O=C(N/N=C/c1cccc([N+](=O)[O-])c1)c1cccs1 | inconclusive: 96.7%
O=C(NC1CCCCCCC1)c1cccc(Cl)c1 | inconclusive: 34%
C[C@@H]1CN([C@H](C)CO)C(=O)c2cc(NC(=O)Nc3cccc4ccccc34)ccc2O[C@@H]1CN(C)S(=O)(=O)c1ccc(Cl)cc1 | inactive: 10.8%
Cc1ccc(S(=O)(=O)NNC(=O)c2cccc(O)c2)cc1 | active: 72.6%
CC(=O)Nc1ccc(S(=O)(=O)NCC2CCC(C(=O)NCCCOC(C)C)CC2)cc1 (centres undefined) | inconclusive: 30.2%

SMILES | activation
CC(C)CC#Cc1cnc2c(c1)C(=O)N([C@H](C)CO)C[C@H](C)[C@@H](CN(C)C(=O)Cc1cccnc1)O2 | inconclusive: 59.7%
CN1CCN(C2Cc3ccc(F)cc3Sc3cc(F)c(Cl)cc32)CC1 (centres undefined) | inactive: -7.17%
COc1ccc(S(=O)(=O)N(C)C[C@H]2Oc3c(NC(=O)NC4CCCCC4)cccc3C(=O)N([C@@H](C)CO)C[C@H]2C)cc1 | inactive: -1.86%
O=C(COC(=O)c1ccccc1Br)NCCC1=CCCCC1 | inactive: 4.62%
O=C(Nc1ccccc1N1CCOCC1)c1ccc(N2CCCC2=O)cc1 | inconclusive: 51.2%
COc1cc2c(cc1OC)C(=S)NC1(CCCC1)C2 | inconclusive: 75.7%
CCN(CC)C(=O)C1CCC(CNS(=O)(=O)c2cccc3nsnc23)CC1 (centres undefined) | inconclusive: 31.2%
C[C@H]1CN([C@@H](C)CO)C(=O)c2cc(NC(=O)CCCN(C)C)ccc2O[C@H]1CN(C)S(C)(=O)=O | inconclusive: 53.3%
CC(NC(=O)COc1ccccc1F)C1CC2CCC1C2 (centres undefined) | inconclusive: 39.3%
CCCCn1nc(NC(=O)CC(C)C)c2cc3cc(OC)ccc3nc21 | active: 55.6%
C[C@@H]1CN([C@@H](C)CO)C(=O)Cc2cc(NS(=O)(=O)c3ccc(F)cc3)ccc2O[C@@H]1CN(C)S(=O)(=O)c1ccc(Cl)cc1 | active: 102%
O=c1oc2ccc(Cl)cc2cc1-c1ccccc1 | inactive: 3.5%
N#Cc1cccnc1N1CCC(C(N)=O)CC1 | active: 69.5%
COc1ccc(/C=N/NC(=O)c2cc[n+]([O-])cc2)cc1 | active: 42.1%
CCn1c(SCC(=O)Nc2cccc(C)c2)nc2c(c1=O)SC(C)C2 (centres undefined) | inconclusive: 149%
C[C@@H]1CN([C@H](C)CO)C(=O)Cc2cc(NC(=O)Cc3ccccc3)ccc2O[C@H]1CN(C)S(C)(=O)=O | active: 67.9%
O=C(COC(=O)COc1ccc(Cl)cc1Br)NCCC1=CCCCC1 | active: 29.5%
C[C@H](CO)N1C[C@H](C)[C@@H](CN(C)Cc2ccc(Oc3ccccc3)cc2)Oc2ccc(NC(=O)Nc3ccc(F)cc3)cc2C1=O | inconclusive: 40.9%
CC(C)Nc1nc(NC(N)=S)nc(NC(C)C)n1 | inactive: 1%
OC1(c2ccccc2)CNCCc2ccccc21 (centres undefined) | inconclusive: 28.3%
COCc1cn(CC[C@H]2CC[C@H](NC(=O)c3ccccc3)[C@@H](CO)O2)nn1 | inactive: -2.04%
O=C(NCC(=O)N(c1ccccc1F)C(C(=O)NC1CCCC1)c1ccco1)c1ccco1 (centres undefined) | inconclusive: 116%
C[C@H]1CN([C@@H](C)CO)C(=O)c2cc(NC(=O)CCN3CCOCC3)ccc2O[C@H]1CN(C)S(C)(=O)=O | inconclusive: 106%
Cc1cc(=O)oc2cc(OC(C)C(=O)Nc3nccs3)ccc12 (centres undefined) | inconclusive: 58.2%
Cc1noc(C)c1S(=O)(=O)N(C)C[C@H]1Oc2ccc(NS(C)(=O)=O)cc2CC(=O)N([C@@H](C)CO)C[C@H]1C | active: 27.8%

SMILES | activation
COc1cccc(-c2oc3c(c2C#CC2(N)CCCCC2)C(O)CCC3)c1 (centres undefined) | inconclusive: 109%
COCC#Cc1ccc2c(c1)O[C@H](CN(C)S(C)(=O)=O)[C@@H](C)CN([C@H](C)CO)S2(=O)=O | inactive: 0.0635%
C[C@H]1CN([C@@H](C)CO)C(=O)c2cc(NC(=O)Nc3cccc4ccccc34)ccc2O[C@H]1CN(C)C(=O)Nc1cccc2ccccc12 | inactive: 0.325%
CCOc1ccc(Oc2nc(N(CC)CC)nc(N3CCOCC3)n2)nn1 | inconclusive: 44.6%
O=C(Cn1cnc2c(nnn2Cc2ccc(F)cc2)c1=O)NCc1ccc(F)cc1 | inconclusive: 26.3%
CCN(CC)c1ccc(NC(=O)COC(=O)CCC(=O)c2cccs2)cc1 | inconclusive: 86%
Cc1ccsc1C(=O)OCC(=O)N(Cc1ccccc1)C(C)C | inactive: -0.238%
C[C@@H]1CN([C@@H](C)CO)C(=O)c2cc(C#Cc3ccccn3)cnc2O[C@@H]1CN(C)Cc1ccncc1 | inconclusive: 66%
Cc1noc(C)c1NC(=O)N(C)C[C@@H]1Oc2c(NC(=O)c3ccncc3)cccc2C(=O)N([C@H](C)CO)C[C@H]1C | inconclusive: 30.6%
COc1ccc(C2C(C(C)=O)=C(O)C(=O)N2Cc2ccccc2)c(OC)c1 (centres undefined) | inconclusive: 28.1%
CCCC(=O)OC[C@H]1CN(C2CCCC2)S(=O)(=O)c2c(Oc3ccc(F)cc3)cccc2O1 | inconclusive: 87.2%
O=[N+]([O-])c1cccc(COc2ccccc2CN2CCOCC2)c1 | inconclusive: 139%
C[C@H](CO)N1C[C@H](C)[C@@H](CN(C)C(=O)Nc2ccc(C(F)(F)F)cc2)Oc2cc(-c3ccncc3)ccc2S1(=O)=O | inconclusive: 58.2%
COC(=O)CC(c1ccc(C#N)cc1)n1c(C)ccc1C (centres undefined) | inconclusive: 32.6%
CC(=O)Nc1ccc(C(=O)Nc2ccc(S(=O)(=O)Nc3nccc(C)n3)cc2)cc1 | inconclusive: 41.6%
CO[C@@H]1CN(C)C(=O)c2ccc(NC(C)=O)cc2OC[C@@H](C)N(Cc2cc(F)ccc2F)C[C@H]1C | inactive: 0.322%
CCOC(=O)C1CCN(C(=O)c2cc3cc4ccc(OC)cc4nc3o2)CC1 | inconclusive: 40.5%
COc1ccc(S(=O)(=O)NCC(c2ccc3c(c2)OCO3)N2CCOCC2)cc1C (centres undefined) | inconclusive: 48.7%
C[C@@H]1CN([C@H](C)CO)C(=O)c2cccc(NC(=O)Nc3ccccc3)c2O[C@@H]1CN(C)S(=O)(=O)c1ccccc1 | active: 255%
C[C@@H]1CN([C@@H](C)CO)C(=O)c2cccc(NS(=O)(=O)c3cccs3)c2O[C@@H]1CN(C)Cc1ccc(C(=O)Nc2ccccc2N)cc1 | inconclusive: 46.2%
O=C(NCCCN1CCCC1)c1[nH]c(C(F)(F)F)nc1-c1ccccc1 | inconclusive: 53.8%
Cc1ccc(S(=O)(=O)NC(=O)NC(=O)N(C)S(=O)(=O)c2ccc(C)cc2)cc1 | inconclusive: 50.7%
C[C@H](CO)N1C[C@H](C)[C@@H](CN(C)C(=O)Cc2ccccc2)OCc2ccccc2-c2ccccc2C1=O | inactive: 2.29%
O=C(Nc1ccc(Br)cc1)c1ccccc1Br | inconclusive: 69.4%
